Source: PMC4336329 (PLoS ONE, 2015)
About 14,000 (4.5%) of roughly 310,000 compounds showed an effect of 50% or more. The effect is printed as a negative number. The list shows a part of the results.

Target: human ether-à-go-go-related gene (hERG) potassium channel (human, UniProt Q12809)
Assay: primary screen, population patch clamp on CHO cells stably expressing hERG
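Also: peak tail current of the secondary pulse compared with the same well before compound.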

human ether-à-go-go-related gene (hERG) potassium channel, sequence (Q12809 whole entry, looked up): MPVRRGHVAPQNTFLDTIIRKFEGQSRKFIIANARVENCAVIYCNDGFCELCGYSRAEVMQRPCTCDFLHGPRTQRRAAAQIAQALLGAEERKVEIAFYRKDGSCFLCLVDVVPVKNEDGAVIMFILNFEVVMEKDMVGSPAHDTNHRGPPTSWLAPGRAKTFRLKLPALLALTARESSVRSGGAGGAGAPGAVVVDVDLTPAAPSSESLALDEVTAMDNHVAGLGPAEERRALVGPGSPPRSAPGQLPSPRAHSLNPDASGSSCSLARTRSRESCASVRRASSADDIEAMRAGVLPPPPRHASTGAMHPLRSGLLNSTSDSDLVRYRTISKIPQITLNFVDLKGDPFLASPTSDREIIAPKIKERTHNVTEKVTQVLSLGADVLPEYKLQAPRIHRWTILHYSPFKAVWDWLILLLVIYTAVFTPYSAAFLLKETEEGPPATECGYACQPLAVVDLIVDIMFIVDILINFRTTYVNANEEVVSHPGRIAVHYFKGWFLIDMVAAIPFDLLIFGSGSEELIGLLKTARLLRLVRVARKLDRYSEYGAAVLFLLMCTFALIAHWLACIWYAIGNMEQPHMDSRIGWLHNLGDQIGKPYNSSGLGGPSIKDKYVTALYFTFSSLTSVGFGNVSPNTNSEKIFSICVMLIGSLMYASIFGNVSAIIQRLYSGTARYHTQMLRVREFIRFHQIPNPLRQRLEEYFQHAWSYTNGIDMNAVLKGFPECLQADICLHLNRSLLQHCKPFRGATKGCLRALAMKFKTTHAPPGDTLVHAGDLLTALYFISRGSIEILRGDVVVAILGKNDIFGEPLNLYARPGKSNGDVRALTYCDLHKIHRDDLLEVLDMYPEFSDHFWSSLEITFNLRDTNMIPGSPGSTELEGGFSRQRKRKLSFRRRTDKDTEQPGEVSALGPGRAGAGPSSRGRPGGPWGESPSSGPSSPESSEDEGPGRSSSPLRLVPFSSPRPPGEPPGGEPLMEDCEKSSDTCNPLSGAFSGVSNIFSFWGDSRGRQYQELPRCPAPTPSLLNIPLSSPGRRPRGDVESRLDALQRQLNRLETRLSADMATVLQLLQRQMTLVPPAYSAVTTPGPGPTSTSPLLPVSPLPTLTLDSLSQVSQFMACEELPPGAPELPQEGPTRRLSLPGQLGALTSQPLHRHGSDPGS

Row | Structure (SMILES) | hERG current change (%, negative = inhibition) at 10uM [%]
1 | COc1ccccc1C(=O)N/C(=C/c1ccc(Br)cc1)C(=O)NCC(=O)O | -8.44
2 | Cc1nc2c(C(=O)NCc3ccc4c(c3)OCO4)c[nH]n2c(=O)c1Cl | 7.05
3 | O=C(O)CSc1nc(SCc2ccccc2Cl)nc2c1CCCC2 | 15.4
4 | Cc1nnc(NC(=O)CN2C(=O)NC3(CCCC3)C2=O)s1 | 6.62
5 | COc1cc(CCC(=O)OCC(=O)NCC2CCCCC2)cc(OC)c1OC | 15.3
6 | CCn1c(CSc2nc3ccccc3s2)nnc1SCC(=O)NCC(=O)OC | -10.2
7 | Cc1ccc(S(=O)(=O)N2CCN(C(=O)CSCc3ccc(C(C)C)cc3)CC2)cc1 | -10.5
8 | Cc1nn(CCOc2ccccc2)c(=O)n1-c1cccc(F)c1 | -7.04
9 | CCn1c(CNc2cccc(Cl)c2)nnc1SCC(=O)OC1CCCCC1 | -25
10 | CCN(CC)C(=O)CSc1nc2c(sc(=S)n2-c2ccccc2)c(=O)n1-c1ccc(OC)c(OC)c1 | -2.68
11 | N#C/C(=C/c1ccc(Sc2nc3ccccc3[nH]2)o1)c1ccccc1F | -7.86
12 | COc1ccc(CCNC(=O)Cc2cc(=O)[nH]c(=O)[nH]2)cc1OC | -9.44
13 | CCCn1nc2cc(C(=O)NCc3ccc(C)cc3)ccc2c1OCC | -1.4
14 | CCCc1cc(=O)oc2cc(OCC(=O)NC3CC(C)(C)NC(C)(C)C3)ccc12 | -1.9
15 | CCOC(=O)/C=C1\SCC(=O)N1CC(=O)NC(C)c1ccccc1 (stereo not drawn) | -15.2
16 | CCCc1cc(=O)oc2cc(C)cc(OCC(=O)NCC(O)c3ccccc3)c12 (stereo not drawn) | 13.5
17 | O=C(Nc1cc2c(=O)n(-c3ccc(Oc4ccccc4)cc3)ccc2oc1=O)c1ccccc1 | 9.1
18 | N#C/C(=C\c1ccc(-c2cccc([N+](=O)[O-])c2)o1)C(=O)Nc1nc(-c2cccs2)cs1 | -2.87
19 | CN(Cc1ccccc1C#N)S(=O)(=O)c1cccs1 | 14.8
20 | CN1CCN(C(=O)C2=C[C@@H](c3coc4ccccc4c3=O)C[C@@H](OCCCCO)O2)CC1 | 0.749
21 | COc1ccc(Cl)cc1NC(=O)CN(C1CCCCC1)S(C)(=O)=O | -37.5
22 | COc1cc(NC(=O)c2ccccc2)c(OC)cc1NC(=O)CN1C(=O)NC2(CCCCC2)C1=O | -70.3

Row | Structure (SMILES) | hERG current change (%, negative = inhibition) at 10uM [%]
23 | c1ccc(CCn2nnnc2C(c2cccnc2)N2CCN(c3ccccc3)CC2)cc1 (stereo not drawn) | -47.6
24 | O=C(NC1CCCCC1)NC1CC2CCC(C1)N2Cc1nnnn1Cc1ccc2c(c1)OCO2 (stereo not drawn) | -39.8
25 | COc1ccccc1NS(=O)(=O)c1ccc2oc(SC(C)C(=O)N3CCNC3=O)nc2c1 (stereo not drawn) | -26.6
26 | CCOc1ccc(C(=O)Nc2cccc(C(=O)O)c2C)cc1Cl | 25.2
27 | Cc1[nH]c2ccccc2c1C(=O)CSc1ccc(F)cc1 | 25
28 | Cc1nnc(SCC(=O)NCC2CCCCC2)n(N)c1=O | 10.9
29 | CC(=O)c1c(C)[nH]c(C(=O)OCC(=O)Nc2ccc(Cl)cc2[N+](=O)[O-])c1C | -8.48
30 | COC(=O)C1=C(c2ccccc2)C[C@@H]2CC[C@H]1N2C(=O)NCCNC(C)=O | -2.15
31 | C[Se]C[C@@H](N)C(=O)O.Cl | 12.3
32 | COCCCNC(=O)CCn1nc(-c2ccc(Cl)cc2)ccc1=O | -27.9
33 | COc1ccc(OC)c(/C=N/NC(=O)c2ccc(N(C)S(=O)(=O)c3ccccc3)cc2)c1 | 6.58
34 | O=C(CN(C(=O)CNC(=O)c1cccs1)c1ccccc1)NC1CCCCC1 | 3.72
35 | O=C(N/N=C/c1c(O)n(Cc2ccccc2)c(=O)[nH]c1=O)c1ccccc1 | 19
36 | CN(C(=O)CSc1nc2ccc(Br)cc2c(=O)n1Cc1ccco1)C1CCS(=O)(=O)C1 (stereo not drawn) | -79.6
37 | CSc1ccccc1C(=O)C1CCCN(Cc2cnn(-c3ccccc3)c2)C1 (stereo not drawn) | -67.4
38 | CCOC(=O)c1c(NC(=O)c2cccs2)sc2c1CCC2 | 25.3
39 | O=C(NCCCc1ccccc1)C1CCC(CNc2c(N3CCCCC3)c(=O)c2=O)CC1 (stereo not drawn) | 8.13
40 | Cc1c(Cl)cccc1NC(=O)CCN1CCCC(C)C1 (stereo not drawn) | -3.7
41 | CC(C)c1nc(SCC(=O)NC(=O)NC(C)(C)C)n[nH]1 | -14.2
42 | CCOc1ccc(C(=O)NC(=S)Nc2ncccc2C)cc1[N+](=O)[O-] | -67.6
43 | O=C(C(=O)N1CCCC1)c1c(-c2ccccc2)[nH]c2ccccc12 | 7.82
44 | CCN(CC(=O)Nc1ccccc1OC)C(=O)C1CCC1 | 4.56

Row | Structure (SMILES) | hERG current change (%, negative = inhibition) at 10uM [%]
45 | CCCCCC(=O)NC(=S)Nc1ccc2oc(=O)ccc2c1 | 8.93
46 | Cc1cc(N2CCCC2=O)cc(C)c1S(=O)(=O)NCCOc1ccc(C(C)(C)C)cc1 | -5.35
47 | O=C(CSC(=S)N1CCCC1)Nc1ncc(Cl)cc1Cl | 13.7
48 | CCNC(=O)c1ccc(C2SCC(=O)N2CCc2ccccc2)cc1 (stereo not drawn) | -19.6
49 | COc1ccc(OCCCC(=O)OCC(=O)NNC(=O)c2ccc([N+](=O)[O-])cc2)cc1 | -5.31
50 | Cc1ccc2nc3c(c(Nc4cccc(O)c4)c2c1)CCC3.Cl | -70
51 | COc1cc(OC)c(NC(=O)CCNS(=O)(=O)c2ccc3c(c2)CC(C)N3C(C)=O)cc1Cl (stereo not drawn) | -6.33
52 | CC(=O)Nc1cccc(C(=O)N2CCC(n3nccc3NC(=O)CC(C)C)CC2)c1 | -28.1
53 | CC(C)(C)NC(=O)C(c1ccc(F)cc1)N(Cc1cccs1)C(=O)c1ccc(CN2CCOCC2)o1 (stereo not drawn) | -12.7
54 | COc1ccccc1NC(=S)NC(=O)c1c(-c2ccccc2Cl)noc1C | 20.4
55 | Cc1cc2cc(C)c(NCCNC(=O)c3ccccc3Cl)nc2cc1C | 6.23
56 | CCOc1ccc(NC(=S)NC(=O)c2c(Br)cnn2C)c([N+](=O)[O-])c1 | 6.58
57 | CCN1C(=O)/C(=c2\sc3nc(=O)c(Cc4ccccc4)nn3c2=O)c2ccccc21 | 8.88
58 | OCCNCc1ccc(OC2CCCC2)cc1 | 11.1
59 | Cc1cc(C)cc(NC(=O)CN2CCN(C(=O)C3CCCO3)CC2)c1 (stereo not drawn) | 7.51
60 | Clc1ccc(Br)cc1-c1nc(-c2ccncc2)no1 | 7.52
61 | O=C(c1cc(-c2cccs2)nc2ccccc12)N1CCN(S(=O)(=O)c2cccc(F)c2)CC1 | -0.1
62 | CC(=O)Nc1ccc(S(=O)(=O)N2c3ccccc3NC(=O)CC2C)c(Cl)c1 (stereo not drawn) | 11.9
63 | O=C1NC2=C(C(=O)CCC2)C(c2ccc([N+](=O)[O-])cc2)N1 (stereo not drawn) | 17.2
64 | CCOC(=O)Cn1c(CCC(=O)O)ccc1-c1ccc(F)cc1 | 11.8
65 | CCC(NS(=O)(=O)c1ccc(OC)cc1)C(=O)O (stereo not drawn) | -9.95
66 | Cc1ccc(-c2nc3ccccc3c(=O)n2CCCn2ccnc2)cc1 | -57.7

Row | Structure (SMILES) | hERG current change (%, negative = inhibition) at 10uM [%]
67 | Cc1ccccc1C(=O)c1cccn1CC(=O)NCCCN1CC(C)CC(C)C1 (stereo not drawn) | -72.1
68 | COc1ccc(F)cc1C(=O)C1CCCN(Cc2ccc(Sc3nncn3C)o2)C1 (stereo not drawn) | 12.6
69 | O=C(Nc1nc(-c2ccc(Br)cc2)cs1)c1cccnc1 | 5.72
70 | CCOC(=O)[C@H]1[C@H]2COc3ccccc3[C@@H]2N2C(=O)c3cc(F)ccc3NC(=O)[C@@]12C | -26.5
71 | O=C(CCc1nc2ccccc2c(=O)[nH]1)Nc1nnc(SCc2ccc(Cl)cc2)s1 | 11.9
72 | Cc1ccnc(NC(=O)CS(=O)(=O)Cc2ccccc2)c1 | -0.409
73 | CNS(=O)(=O)c1ccc(N2CCCC2)c([N+](=O)[O-])c1 | 10.5
74 | Cc1noc(C)c1COC(=O)c1ccc(F)c(S(=O)(=O)N2CCCCC2)c1 | -22.7
75 | O=C1/C(=C/c2ccccn2)SC(=S)N1N1CCOCC1 | 21
76 | CCOC(=O)CCSc1cc(C)c2ccccc2n1 | 6.83
77 | CC(=O)N(c1ccccc1)C1CCCC1 | 0.476
78 | O=C1CCC/C1=C/Nc1cccc(F)c1 | 12.3
79 | Cc1ccc(-c2nc(SCC(=O)Nc3cc(C)on3)c3c(=O)n(C)c(=O)n(C)c3n2)cc1 | 19.9
80 | Cc1cc([N+](=O)[O-])ccc1NC(=O)C(C)[n+]1ccccc1.[Br-] (stereo not drawn) | 18.6
81 | CC(=O)N1CCN(c2ccc(NC(=O)c3cccc(OCc4ccccc4)c3)cc2)CC1 | 7.06
82 | COc1ccc(C(=O)/C=C/Nc2ccc(C)cn2)cc1OC | -6.9
83 | COc1ccc(Cl)cc1-n1c(C)cc(C=O)c1C | 4.29
84 | C=C(C)COc1ccc(-c2nc(N)ncc2-c2ccccc2OC)c(O)c1 | -31.6
85 | Cc1ccc(C#CC(C)(O)C(C)(C)C)cn1 (stereo not drawn) | 19.4
86 | CC(C)(C)c1nc(Sc2ccc([N+](=O)[O-])cn2)n[nH]1 | 5.64
87 | CC(C)c1ccc(CNCCCSc2ncccn2)cc1.Cl | -22.4
